Measurements as given in PubChem BioAssay AID720708 (National Center for Advancing Translational Sciences (NCATS), 2013).
The campaign covered roughly 360,000 compounds. About 660 (0.18%) were called active. This list was built around the results that the source calls inconclusive (neither active nor inactive); the mix of calls is not that of the screen. Calls come from the whole dose curve; as a rule, active = well fitted inhibition curve with a large enough effect; inconclusive = small, poorly fitted or top-dose-only effect; inactive = no such curve, though single readings can be large or run the other way. No potency is given beside an inconclusive call; the fits are too rough.

target: Rap guanine nucleotide exchange factor 4 (Homo sapiens) (UniProt Q8WZA2); experiment: qHTS for Antagonist of cAMP-regulated guanine nucleotide exchange factor 2 (EPAC2): primary screen; conditions: EPAC2 GEF exchange of Rap1B-BODIPY-GDP, fluorescence; series mostly up to 114 µM; note: nearly all actives have a fitted effect of over 45% in size
Chain of UniProt Q8WZA2 (Q8WZA2 whole entry, looked up): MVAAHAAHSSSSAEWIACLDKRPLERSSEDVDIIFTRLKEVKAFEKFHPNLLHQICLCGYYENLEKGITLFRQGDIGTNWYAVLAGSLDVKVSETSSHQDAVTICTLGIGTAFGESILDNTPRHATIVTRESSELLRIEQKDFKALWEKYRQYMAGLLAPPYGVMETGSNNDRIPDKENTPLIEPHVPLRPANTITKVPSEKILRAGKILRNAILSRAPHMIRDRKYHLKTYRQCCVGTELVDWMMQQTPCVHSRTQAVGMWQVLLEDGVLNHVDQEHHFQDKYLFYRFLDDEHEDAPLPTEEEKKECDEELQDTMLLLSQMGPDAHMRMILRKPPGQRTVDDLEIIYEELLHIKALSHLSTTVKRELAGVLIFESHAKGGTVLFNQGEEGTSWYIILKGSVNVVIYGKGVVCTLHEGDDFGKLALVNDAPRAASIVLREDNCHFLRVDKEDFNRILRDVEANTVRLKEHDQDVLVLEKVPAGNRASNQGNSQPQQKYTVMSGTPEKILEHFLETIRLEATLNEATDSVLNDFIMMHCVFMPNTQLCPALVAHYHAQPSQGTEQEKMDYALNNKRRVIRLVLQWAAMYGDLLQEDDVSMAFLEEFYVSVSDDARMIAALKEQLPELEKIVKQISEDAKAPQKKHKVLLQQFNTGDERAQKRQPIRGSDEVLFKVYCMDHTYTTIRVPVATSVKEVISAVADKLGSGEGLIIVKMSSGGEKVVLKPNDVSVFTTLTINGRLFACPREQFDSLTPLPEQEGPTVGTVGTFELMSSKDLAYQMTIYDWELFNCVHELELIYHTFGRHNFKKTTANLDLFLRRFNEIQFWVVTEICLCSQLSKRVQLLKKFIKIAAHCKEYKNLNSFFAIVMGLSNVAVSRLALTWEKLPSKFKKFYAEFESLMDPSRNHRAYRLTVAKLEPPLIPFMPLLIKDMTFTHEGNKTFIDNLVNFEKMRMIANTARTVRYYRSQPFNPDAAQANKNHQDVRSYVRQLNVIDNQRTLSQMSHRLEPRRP
Potency is the fitted concentration of half-maximal effect; tags give direction and shape of the fitted curve.

Structure (SMILES)	Potency
CC(/C=C1\SC(=S)N(NS(=O)(=O)c2ccccc2)C1=O)=C\c1ccccc1	active: 50.1 µM
CC(CCc1ccc(O)cc1)NCCc1ccc(O)c(O)c1 (centres undefined)	inactive
Cc1ccc(S(=O)(=O)NN2C(=O)/C(=C/c3cccnc3)SC2=S)cc1	inconclusive [inhibitor, partial curve]
CC1=C(C(=O)N(C(C)C)C(C)C)CC(CC(=O)NCc2cccs2)C(=O)N1Cc1ccccc1 (centres undefined)	inactive
Cc1cc(C)c(C(=O)N2CCCC(N3CCN(c4cccc(C(F)(F)F)c4)CC3)C2)o1 (centres undefined)	inconclusive [inhibitor, partial curve]
O=C(NCc1ccco1)c1sc(=S)n2c1[nH]c(=O)c1ccccc12	inconclusive [inhibitor, partial curve]
Cc1ccccc1N1CCN(S(=O)(=O)c2nnc(NC(=O)c3ccco3)s2)CC1	inconclusive [inhibitor, partial curve]
CCCCCCCCCCCCN1[C@@H](CC(=O)O)c2cc(C(F)(F)F)ccc2S1(=O)=O	inconclusive [inhibitor, full curve]
CCCCCCCCCCCC(=O)O	inconclusive [inhibitor, partial curve]
CN(C)c1ccc(C#Cc2ccc3cc(CCO)oc(=O)c3c2)cc1	inactive
COC(=O)[C@@H]1C[C@@H](c2ccccc2)[C@H](C)C1(C)C	inconclusive [inhibitor, partial curve, poor fit]
CCC(CCC(=O)Nc1ccc(S(N)(=O)=O)cc1)C(=O)O (centres undefined)	inactive
CC(=O)C1=CCC(c2ccccc2)N(S(=O)(=O)c2ccc(Cl)cc2)C1 (centres undefined)	inconclusive [inhibitor, full curve]
O=C(C(=O)N1CCN(C(=O)OCc2ccccc2)CC1)c1cccs1	inactive
O=C(CNC(=O)OCc1ccccc1)OC(c1ccccc1)c1ccccc1	inconclusive [inhibitor, full curve, poor fit]
O=C(Nc1nc2ccccc2[nH]1)C1CCN(S(=O)(=O)c2cccs2)CC1	inconclusive [inhibitor, partial curve]
NS(=O)(=O)c1cccc(Nc2nc3ccccc3nc2NS(=O)(=O)c2ccc(Cl)cc2)c1	inconclusive [inhibitor, partial curve]
CNC(=O)c1c(NC(=O)c2ccc(S(=O)(=O)N(C)c3ccccc3)cc2)sc2c1CCN(C(C)C)C2	inactive
C=CCS/C(=N\n1cnc2ccccc2c1=O)N(CC)CC	inconclusive [inhibitor, single point]
O=C1NN(c2ccccc2)C(=O)/C1=C/c1ccc(Sc2ccc(Cl)cc2)o1	inactive
CC(C)C[C@H](NC(=O)OC(C)(C)C)C(=O)N/N=C/C1=Cc2ccccc2OC1C (some centres undefined)	inconclusive [inhibitor, partial curve]
CCOc1cccc(CNc2ccc(O)cc2)c1OCc1ccc(Cl)cc1	active: 35.5 µM
Cc1cc(N/N=C/c2ccc(N(C)C)cc2)c2ccccc2n1	inconclusive [inhibitor, single point]

Structure (SMILES)	Potency
COC(=O)c1sccc1NC(=O)COc1ccc(F)cc1Cl	inactive
CCCCCNC(=O)C(c1cc2ccccc2o1)n1c(=O)c(-c2ccco2)nc2ccccc21 (centres undefined)	inconclusive [inhibitor, full curve]
CCc1cc2c(-c3ccccc3)cc(=O)oc2c(CN2CCOCC2)c1O	inconclusive [inhibitor, single point]
COC(=O)c1[nH]c2ccccc2c1NC(=O)CN1CCC(C(N)=O)(N2CCCCC2)CC1	inconclusive [inhibitor, full curve, poor fit]
CC(C)=CCC/C(C)=C/COc1c2occc2cc2ccc(=O)oc12	inconclusive [inhibitor, partial curve]
CC(Oc1ccc(F)cc1)C(=O)Nc1ccccc1N1CCCCC1 (centres undefined)	inactive
N#Cc1nc(-c2ccccc2F)oc1NCc1ccccc1	inconclusive [inhibitor, partial curve]
CCOC(=O)C1=C(C)NC(=O)NC1c1ccc(OCC(=O)N2CCCCC2)cc1 (centres undefined)	inconclusive [inhibitor, single point]
CCc1nc2c(OCc3ccc(C(=O)OC)cc3)cccn2c1N(C)C(=O)c1ccc(OC)cc1	inconclusive [inhibitor, full curve]
Cc1cc(C)nc(-n2nc(C)c(Sc3ccc(F)cc3)c2N)n1	inactive
Cc1ccc(-c2cc(C(=O)Nc3ccccc3C)c3ccccc3n2)o1	inactive
CC(C)OC(=O)c1cc(NC(=O)C2C3C=CC(O3)C2C(=O)O)cc(C(=O)OC(C)C)c1 (centres undefined)	inconclusive [inhibitor, single point]
Cc1ccccc1CN1[C@@H](CC2CCCCC2)COCCS1(=O)=O	inconclusive [inhibitor, partial curve]
Cc1ccc(NC(=O)CN2CCOCC2)c(Br)c1	inactive
Cc1ccc(C(C[N+](=O)[O-])c2c(C)cc3ccccn23)cc1 (centres undefined)	inconclusive [inhibitor, partial curve]
Cc1ccc(CNC(=O)COC(=O)c2nc(-c3ccccc3)oc2C)cc1	inconclusive [inhibitor, full curve, poor fit]
C=C1c2cccc(OC)c2O[C@H](C(=O)OCC)[C@@H]1CCCCCC	inconclusive [inhibitor, partial curve]
Cc1nc2c(OCc3ccc(C(F)(F)F)cc3)cccn2c1N(C)CC1CC1	inconclusive [inhibitor, full curve]
COc1ccccc1CCC(=O)Nc1ccc2c(c1)CN(Cc1ccc(CO)o1)CC2	inactive
COc1ccc(OC)c(NC(=O)C(C)Oc2ccc(Br)cc2)c1 (centres undefined)	active: 12.6 µM
CC(=O)Nc1ccc(NC(=O)C(C)OC(=O)C23CC4CC(CC(Cl)(C4)C2)C3)cc1 (centres undefined)	inconclusive [inhibitor, partial curve]
CCOc1c(O)ccc(/C=C2\SC(=S)NC2=O)c1[N+](=O)[O-]	active: 56.2 µM
N#C/C(=C\c1ccc(O)c([N+](=O)[O-])c1)c1nc2ccccc2s1	inconclusive [inhibitor, partial curve]

Structure (SMILES)	Potency
Cc1ccc(-c2ccc(CN3C(CC(C)C)C(=O)N(Cc4cn(CCC5OCCCO5)nn4)CCS3(=O)=O)cc2)cc1 (centres undefined)	inconclusive [inhibitor, partial curve]
O=C(CNc1ccccc1)N/N=C/c1ccc2c(c1)OCO2	inactive
COc1cc(C(=O)c2cc3c(cc2C)OCO3)cc(OC)c1OC	inconclusive [inhibitor, partial curve]
CC(C)(C)N1C(=O)c2ccccc2NC(=O)C1C(=O)NCCOc1ccccc1 (centres undefined)	inconclusive [inhibitor, single point]
COCCNc1nc(Oc2cncc(Cl)c2)c2sccc2n1	inconclusive [inhibitor, partial curve]
Cc1ccc(C)c(S(=O)(=O)Nc2nc3ccc(S(N)(=O)=O)cc3s2)c1	inconclusive [inhibitor, full curve, poor fit]
CN(C)c1ccc(N=C/C=C2\N(C)c3ccccc3C2(C)C)cc1	inactive
COc1cccc(CN2CCC2(C)C(=O)Nc2cccc(Oc3ccccc3)c2)c1F (centres undefined)	inactive
Oc1ccc2c(c1)OCC1(O)Cc3cc(O)c(O)cc3C21 (centres undefined)	inactive
CC1CC(=O)c2cnc(N)nc2C1 (centres undefined)	inactive
Cc1oc2c(c(C)cc3oc(=O)c(CC(=O)N[C@H](C(=O)O)C(C)C)c(C)c32)c1C	inconclusive [inhibitor, partial curve]
Cc1cc(N)ccc1-c1cc2ccccc2oc1=O	inconclusive [inhibitor, partial curve]
Oc1ccc(-c2nc3ccccc3nc2-c2ccccc2)cc1	inconclusive [inhibitor, partial curve]
OCCN(Cc1ccccc1)Cc1cccc(Cl)c1Cl	inactive
C#CCOCCOCCOCCNc1nc(N2CCN(C(=O)CCCCCCCCCCNC(=O)[C@H]([C@@H](C)CC)n3cc(CCCCN=C(N)N)nn3)CC2)nc(N2CCN(C(=O)CCCCCCCCCCNC(=O)[C@H](CO)n3cc(CCCSC)nn3)CC2)n1	active: 50.1 µM
O=C(O)CN1C(=O)/C(=C\C(Br)=C\c2ccccc2)SC1=S	inconclusive [inhibitor, partial curve]
CCCCNS(=O)(=O)c1ccc2nc(SCC(=O)Nc3ccccc3)[nH]c2c1	inactive
CC(=O)N1CCN(c2ccccc2NC(=O)COc2ccc(Cl)cc2Cl)CC1	inconclusive [inhibitor, partial curve]
CC(=O)Nc1sc(C)c(C)c1C(=O)OCCOc1ccccc1	inconclusive [inhibitor, partial curve]
COc1cc(C2(C)SCCCS2)cc(OC)c1OC	inconclusive [inhibitor, partial curve]
COc1ccccc1CN(C)c1nnnn1-c1ccccc1	inconclusive [inhibitor, partial curve]
CN(C)S(=O)(=O)c1cccc(NC(=S)N/N=C/c2cccc(O)c2)c1	inconclusive [inhibitor, full curve, poor fit]
Cc1ccc(NC(=O)Nc2c(Cl)cccc2Cl)cn1	inconclusive [inhibitor, full curve]
